No constants are given. Whether binding was seen depends on the method and setting. In cells and extracts the contact can be indirect. Some results given as binding are weak or reduced against the parent protein; the word gives no strength. Where a sequence is shown, tags or fusion partners need not be part of it.
Biological target: T1, Vin PNSS GFP (GFP-fused vinculin with PKPP in the proline-rich region changed to PNSS) (UniProt Q64727)
T1 sequence: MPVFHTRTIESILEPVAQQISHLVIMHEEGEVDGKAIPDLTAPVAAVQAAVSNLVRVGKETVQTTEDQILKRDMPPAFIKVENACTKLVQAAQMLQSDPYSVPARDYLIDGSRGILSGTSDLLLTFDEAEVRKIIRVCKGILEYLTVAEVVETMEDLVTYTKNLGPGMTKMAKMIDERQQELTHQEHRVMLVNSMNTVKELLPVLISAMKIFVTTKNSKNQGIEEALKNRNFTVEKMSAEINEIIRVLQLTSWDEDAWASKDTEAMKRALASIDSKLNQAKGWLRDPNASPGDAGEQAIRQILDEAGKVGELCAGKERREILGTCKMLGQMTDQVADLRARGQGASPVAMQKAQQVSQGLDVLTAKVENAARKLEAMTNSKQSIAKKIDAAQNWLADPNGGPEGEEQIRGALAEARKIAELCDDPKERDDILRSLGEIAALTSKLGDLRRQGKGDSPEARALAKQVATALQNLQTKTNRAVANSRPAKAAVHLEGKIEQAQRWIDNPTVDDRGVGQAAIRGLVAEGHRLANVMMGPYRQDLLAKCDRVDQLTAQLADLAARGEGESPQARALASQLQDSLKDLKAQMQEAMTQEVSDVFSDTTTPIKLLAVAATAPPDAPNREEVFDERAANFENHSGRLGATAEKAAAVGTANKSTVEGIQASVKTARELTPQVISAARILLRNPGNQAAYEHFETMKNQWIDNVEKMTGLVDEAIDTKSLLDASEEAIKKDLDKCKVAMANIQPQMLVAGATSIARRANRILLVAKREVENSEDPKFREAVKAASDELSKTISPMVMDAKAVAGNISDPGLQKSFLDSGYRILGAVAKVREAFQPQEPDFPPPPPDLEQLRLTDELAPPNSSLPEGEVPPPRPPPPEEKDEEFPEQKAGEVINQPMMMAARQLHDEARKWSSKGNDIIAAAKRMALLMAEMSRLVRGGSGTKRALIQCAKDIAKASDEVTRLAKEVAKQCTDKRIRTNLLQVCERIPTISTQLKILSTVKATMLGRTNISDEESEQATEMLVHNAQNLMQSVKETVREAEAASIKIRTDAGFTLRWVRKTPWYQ
Experiment: co-IP; GFP vinculin (WT or PNSS) immunoprecipitated with anti-GFP from Vin-/- MEFs; NP-40 lysis buffer; blots with CAS, paxillin and Arp2 antibodies

The chains behind the UniProt entries cited, without tags or fusion partners.
UniProt Q8VI36: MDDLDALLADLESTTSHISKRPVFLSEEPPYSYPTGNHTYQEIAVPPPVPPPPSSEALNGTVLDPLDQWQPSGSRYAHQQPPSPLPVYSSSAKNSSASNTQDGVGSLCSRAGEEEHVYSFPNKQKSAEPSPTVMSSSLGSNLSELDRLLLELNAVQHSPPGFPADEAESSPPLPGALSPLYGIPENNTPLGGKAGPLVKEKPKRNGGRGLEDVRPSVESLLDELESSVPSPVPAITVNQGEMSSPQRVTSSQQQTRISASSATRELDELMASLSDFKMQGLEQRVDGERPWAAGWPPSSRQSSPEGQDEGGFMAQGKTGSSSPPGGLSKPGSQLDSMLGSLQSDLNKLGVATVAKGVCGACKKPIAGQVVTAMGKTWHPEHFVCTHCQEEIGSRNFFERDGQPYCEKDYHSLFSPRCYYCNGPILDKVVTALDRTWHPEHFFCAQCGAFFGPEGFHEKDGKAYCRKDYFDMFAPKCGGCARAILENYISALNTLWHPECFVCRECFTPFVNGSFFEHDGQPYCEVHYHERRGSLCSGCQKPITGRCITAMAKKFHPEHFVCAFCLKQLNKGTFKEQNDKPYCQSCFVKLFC

Substance: paxillin (in Vin-/- MEFs) (from UniProt Q8VI36 1-591)
- binding: binds

Source: publication PMC3901934
